The source of these data is FireProtDB (doi:10.1021/bi980270i).

For the data set the following is noted: Homo sapiens; pH 7.4; 20 °C; GdnHCl; CD; Sodium phosphate 50 mM; reversible: yes (100%).

With “Immunoglobulin heavy constant gamma 1 wild type (sequence left out)”, the denaturant m value is 2.8 kcal/mol/M, the “denaturant midpoint (higher = more stable)” value came to 3.25 M and the unfolding free energy is 9.1 kcal/mol.
